Screen size: about 310,000 compounds; about 17,000 (5.5%) were called active. About 11% were inconclusive and are not listed. Calls come from the whole dose curve; as a rule, active = well fitted inhibition curve with a large enough effect; inconclusive = small, poorly fitted or top-dose-only effect, or effect the other way; inactive = no such curve, though single readings can be large or run the other way. The entries are a selection whose mix differs from that of the whole data set.
% is set by controls: 0 for no effect and ±100 for the full control effect; potency is the fitted concentration of half-maximal effect.

This assay has as its target Nuclear receptor ROR-gamma (Mus musculus) (UniProt P51450). Description: qHTS for inhibitors of ROR gamma transcriptional activity. Note: nearly all actives have a fitted effect of over 60% in size. As to conditions: Drosophila S2 Gal4-RORgamma UAS-luciferase reporter, 20 h; series mostly up to 53.6 µM; activity change, negative = inhibition: at the top concentration. The text has this: NIH Molecular Libraries Probe Production Network [MLPCN] NIH Chemical Genomics Center [NCGC] MLPCN Grant: R03 DA026211-01 Assay Provider: Dan Littman, New York University Assay Overview: The retinoic acid-related orphan receptor (ROR) gamma is a transcription factor that has a central role in the differentiation of Th17 cells, a subset of T helper cells that secrete the inflammatory cytokines IL-17, IL-17F, and IL-22. Th17 cells have been implicated in graft versus host disease, autoimmune disease and asthma. ROR gamma is induced in naive T helper cells in the presence of TGF-beta combined with IL-6, IL-21, or IL-23, and thereafter directs the expression of the Th17 lineage cytokines. To study the mechanism of action of ROR gamma, an insect cell-based assay was screened. This Drosophila Schneider cell line was stably transfected with two vectors: a gene expressing a fusion of the Gal4 DNA binding domain and ROR gamma transactivation domain under the control of the metallothionine promoter and a Photinus luciferase reporter regulated by the Gal4 binding site enhancer, UAS. […] Small molecule inhibitors of ROR gamma activity are detected by a decrease in luciferase reporter activity.
UniProt P51450, sequence (P51450 whole entry, looked up, the tested form may be a part): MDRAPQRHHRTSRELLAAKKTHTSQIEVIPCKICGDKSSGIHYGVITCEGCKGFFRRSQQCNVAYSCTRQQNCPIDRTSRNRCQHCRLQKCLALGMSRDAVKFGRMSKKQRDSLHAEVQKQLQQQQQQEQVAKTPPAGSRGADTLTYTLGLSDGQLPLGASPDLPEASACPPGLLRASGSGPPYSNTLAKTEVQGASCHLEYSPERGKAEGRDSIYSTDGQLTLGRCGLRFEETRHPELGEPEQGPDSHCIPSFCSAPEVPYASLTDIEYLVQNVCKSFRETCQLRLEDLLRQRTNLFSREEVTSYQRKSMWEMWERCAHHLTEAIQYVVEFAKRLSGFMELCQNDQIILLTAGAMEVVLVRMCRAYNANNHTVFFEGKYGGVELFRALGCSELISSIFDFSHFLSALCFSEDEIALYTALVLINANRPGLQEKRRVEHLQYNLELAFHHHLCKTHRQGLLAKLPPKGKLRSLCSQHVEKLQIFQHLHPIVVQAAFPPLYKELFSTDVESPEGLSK
Assay Protocol Summary: For screening, 600 cells in 4 uL/well were dispensed into white solid 1536-well plates (Grenier) using a solenoid-based dispenser. Following transfer of 23 nL compound or DMSO vehicle by a pin tool, the plates were incubated 1 hr at ambient temperature, and 1 uL/well copper sulfate (700 uM final concentration) was added. The plates were centrifuged 15 s at 1000 RPM and incubated 20 hr at ambient temperature. After addition of 1.5 uL Photinus luciferase detection reagent, the plates were incubated 10 min at ambient temperature and then read by an ViewLux (Perkin Elmer) to detect luminescence. Keywords: NIH Roadmap, MLPCN, MLI, MLSMR, qHTS, NCGC, qHTS, nuclear hormone receptor, retinoic acid-related orphan receptor, ROR gamma
As for `O=C1OCCN1C(=O)[C@H]1[C@H](c2ccc(Cl)cc2)C(c2cccc(Cl)c2)=NN1c1ccccc1`, the “activity change, negative = inhibition” value is inactive: -2.49%.
Turning to `CCN(CC)CCNC(=O)c1cc(S(C)(=O)=O)ccc1OC`, the Potency result is “inactive”.
For the compound `O=C(CCCN1CC=C(n2c(=O)[nH]c3ccccc32)CC1)c1ccc(F)cc1`, the Potency entry is “inactive”.
Regarding `CCOc1ccc(/C=C/C2=CC(C)(C)NC(=S)N2)cc1`, the Potency is active: 708 nM.
For `C=C/C1=C/Cc2ccccc2[C@H](C[N+](=O)[O-])C(C(=O)OC)(C(=O)OC)C1`, the “activity change, negative = inhibition” value was inactive: -19.2%.
Take `COc1ccc2cc(CCC(C)=O)ccc2c1`: the Potency entry is “inactive”.
Take `O=C(CSc1nc2ccccc2[nH]1)N/N=C/C=C/c1ccccc1[N+](=O)[O-]`: the “activity change, negative = inhibition” value is inactive: 39.6%.
With `CCCSC(=S)c1c(C)[nH]n(-c2ccccc2)c1=O`, the Potency was active: 316 nM.
For the compound `CC(C)CC(CSc1ccc(Br)cc1)N1CCN(CC(C)C)CCC1=O` (centres undefined), the “activity change, negative = inhibition” value is inactive: 12.6%.
Consider `COc1cccc(/C=C2\SC(=S)N(CCCC(=O)N3CCCCC3)C2=O)c1`, for which the Potency was active: 4470 nM.
Regarding `O=[N+]([O-])c1cccc2cn[nH]c12`, the Potency result is “inactive”.
In the case of `CC(C)NCC(O)c1ccc2ccccc2c1` (centres undefined), the Potency entry is “inactive”.
With `CC#C[C@]1(O)CC[C@H]2[C@@H]3CCC4=CC(=O)CCC4=C3[C@H](c3ccc(N(C)C)cc3)C[C@@]21C`, the “activity change, negative = inhibition” value was inactive: 25.4%.
Take `COC(=O)[C@H]1C[C@@H]1[C@H](NS(=O)(=O)c1ccc2ccccc2c1)c1ccccc1`: the Potency result is “inactive”.
As for `COc1ccc(-c2coc3cc(OC)cc(OC)c3c2=O)cc1`, the “activity change, negative = inhibition” value was inactive: 25.3%.
On the same count and under the same terms, next, `O=C1C2C3c4ccccc4C(c4ccccc43)C2c2nc3ccccc3n21` (centres undefined): inactive: -14.9%; `COc1ccc(COc2cc(-c3cccc(OC)c3)nc3ccc(NC(=O)c4ccc(OC)cc4)cc23)cc1`: inactive: 5.45% [at 40.7 µM].
`CCc1ccc(OCC2c3cc(OC)c(OC)cc3CCN2C(=S)NC)cc1` (centres undefined): the Potency is active: 11200 nM.
With `Cc1c(C(=O)O)oc2c1C(O)CC(C)(C)C2` (centres undefined), the “activity change, negative = inhibition” value is inactive: 0.504%.
For `CCC1=C(C)CN(C(=O)NCCc2ccc(S(=O)(=O)NC(=O)NC3CCC(C)CC3)cc2)C1=O` (centres undefined), the Potency result is “inactive”.
For the compound `Cc1cccc(N=Nc2ccc(O)c3ncccc23)c1`, the Potency is active: 112 nM.
Take `C[C@@H]1CC[C@@]2(O[C@H](CCO)C[C@@H](O)[C@@H]2O)O1`: the “activity change, negative = inhibition” value was inactive: 5.26%.
On the same count and under the same terms, the same measure for `COC(=O)C/C=C\[C@@H](C)[C@@H](/C=N\OC[C@@H]1O[C@H](c2ccccc2)C=C[C@@H]1Oc1ccc(OC)cc1)NS(=O)(=O)c1ccc(C)cc1`: inactive: -1.86% [at 10 µM]; for `CCC1=C(OC(=O)N(CC)CC)N2C(=O)OC(=NCC3CC3)[C@]2(Cc2ccccc2)[C@H]2C1=CC[C@H]1C(=O)N(c3ccccc3)C(=O)[C@H]12`: inactive: 37.9%; for `COc1ccc(C2=C(CN(C)C)C(c3ccccc3)c3ccccc3O2)cc1` (centres undefined): inactive: -33.3%.
Still for that read-out and setting: next, `O=S(=O)(c1cccc2nsnc12)N1CCN(C/C=C/c2ccccc2)CC1`: inactive: 2.15%; `O=C(C1=C[C@@H](C2CCCCC2)C[C@@H](OCCCCO)O1)N1CCN(Cc2ccc3c(c2)OCO3)CC1`: inactive: 11.8%; `COc1ccc(C2=Nn3c(nnc3-c3ccc(OC)cc3)SC2)cc1`: inactive: -6.07%.
Same read-out and setting: the same measure for `CCn1ccnc1CC1COc2ccccc2O1` (centres undefined): inactive: -22.7%.

The values above are taken from PubChem BioAssay AID2551 (National Center for Advancing Translational Sciences (NCATS), 2010).
